Data reported in article PMC4336329 (PLoS ONE, 2015).
The campaign covered roughly 310,000 compounds. About 14,000 (4.5%) showed an effect of 50% or more. The effect is printed as a negative number. Some of the results follow.

Each compound was assayed against human ether-à-go-go-related gene (hERG) potassium channel (human, UniProt Q12809) (assay: primary screen, population patch clamp on CHO cells stably expressing hERG).
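Also: peak tail current of the secondary pulse compared with the same well before compound.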

Sequence of human ether-à-go-go-related gene (hERG) potassium channel (Q12809 whole entry, looked up): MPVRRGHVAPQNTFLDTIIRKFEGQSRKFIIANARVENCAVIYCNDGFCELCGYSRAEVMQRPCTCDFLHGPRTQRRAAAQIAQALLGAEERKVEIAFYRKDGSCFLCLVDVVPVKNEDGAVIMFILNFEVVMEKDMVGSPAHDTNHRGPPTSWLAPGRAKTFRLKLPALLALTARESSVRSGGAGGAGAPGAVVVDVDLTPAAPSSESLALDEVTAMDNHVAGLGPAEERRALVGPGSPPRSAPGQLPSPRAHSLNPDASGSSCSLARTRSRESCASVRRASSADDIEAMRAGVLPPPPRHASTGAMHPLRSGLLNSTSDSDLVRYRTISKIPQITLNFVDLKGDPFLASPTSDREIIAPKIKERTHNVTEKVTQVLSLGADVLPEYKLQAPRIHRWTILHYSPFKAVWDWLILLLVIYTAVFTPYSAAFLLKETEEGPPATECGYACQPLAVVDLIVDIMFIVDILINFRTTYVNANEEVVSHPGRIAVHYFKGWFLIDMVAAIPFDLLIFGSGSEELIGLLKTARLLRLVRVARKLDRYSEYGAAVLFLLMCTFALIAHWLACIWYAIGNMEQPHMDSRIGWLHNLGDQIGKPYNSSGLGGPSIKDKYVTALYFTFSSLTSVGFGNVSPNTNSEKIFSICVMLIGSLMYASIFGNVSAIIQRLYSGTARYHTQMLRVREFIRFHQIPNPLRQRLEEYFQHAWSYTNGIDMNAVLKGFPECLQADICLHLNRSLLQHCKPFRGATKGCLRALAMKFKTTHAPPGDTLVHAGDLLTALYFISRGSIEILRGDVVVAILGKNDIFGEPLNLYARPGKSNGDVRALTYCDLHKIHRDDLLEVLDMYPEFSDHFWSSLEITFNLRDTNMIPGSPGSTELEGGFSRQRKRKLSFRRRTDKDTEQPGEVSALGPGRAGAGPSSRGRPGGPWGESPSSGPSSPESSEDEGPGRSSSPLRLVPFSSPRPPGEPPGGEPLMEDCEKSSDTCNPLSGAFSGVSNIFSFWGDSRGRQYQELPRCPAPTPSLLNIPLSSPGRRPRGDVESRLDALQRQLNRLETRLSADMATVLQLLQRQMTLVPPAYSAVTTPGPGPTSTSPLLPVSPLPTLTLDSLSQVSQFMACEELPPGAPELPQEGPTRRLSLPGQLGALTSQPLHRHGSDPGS

| SMILES | hERG current change (%, negative = inhibition) at 10uM |
| --- | --- |
| C/C(=N\NC(=O)OC(C)(C)C)c1ccc[nH]1 | -2.93% |
| O=C1c2ccccc2NC(c2ccccn2)N1c1ccc(Cl)cc1 (stereo not shown) | -1.85% |
| CCOC(=O)C(NC(=O)CCl)(Nc1sc(C)c(CC)c1C#N)C(F)(F)F (stereo not shown) | -18.4% |
| S=c1[nH]nc(-c2cc(-c3ccccc3)n[nH]2)n1/N=C/c1ccc(Cl)c(Cl)c1 | 11.4% |
| CCCCC1(COC(=O)CCC(=O)O)C(=O)N(c2ccccc2)N(c2ccccc2)C1=O | 21.9% |
| CC[n+]1c(C)n(C)c2cc(S(=O)(=O)N(C)C)ccc21.[I-] | 9.18% |
| NC1=C([N+](=O)[O-])C(c2ccc3c(c2)OCO3)C2=C(CCCC2=O)O1 (stereo not shown) | 10.8% |
| CNC(=O)COC(=O)[C@@H](Nc1ccc(S(=O)(=O)N2CCOCC2)cc1[N+](=O)[O-])C(C)C | -9.16% |
| O=c1/c(=C\c2cc([N+](=O)[O-])cc([N+](=O)[O-])c2O)sc2nc3ccccc3n12 | 13.4% |
| CCC1(C(=O)OC)NC(c2ccco2)C2C(=O)N(c3ccc(F)cc3)C(=O)C21 (stereo not shown) | 6.75% |
| CC(=O)C1C(c2ccc(F)cc2)C2C(C)=NN=C2CC1(C)O (stereo not shown) | 15.9% |
| CS(=O)c1ccccc1-c1nc(-c2cccc(Cl)c2)no1 (stereo not shown) | -27.1% |
| CCOC(=O)N1CCN(C(=O)C2CCC(=O)N(CCCN3CCCC3=O)C2)CC1 (stereo not shown) | 9.22% |
| Cc1nc(S(=O)(=O)N(C)Cc2ccccc2)c(C#N)c(C)c1Cl | 24.6% |
| CC1(C)CN(c2ccc(CC#N)cc2)C1=O | 14.8% |
| Cc1ccccc1-c1nc2ccccc2c(=O)n1/N=C/c1ccc([N+](=O)[O-])cc1 | -36.8% |
| COC(=O)C1CCN(c2ccc(C(N)=O)cc2[N+](=O)[O-])CC1 | -5.64% |
| Cc1nn(-c2ccccc2)c(Cl)c1C(=O)Nc1nnc(C2CCCCC2)s1 | 13.2% |
| CC(C)CCN(C(=O)c1cc(=O)[nH]c2ccccc12)c1c(N)n(Cc2ccccc2)c(=O)[nH]c1=O | -7.4% |
| COC(=O)C1(C)NC(c2ccc(O)cc2)C2C(=O)N(c3ccc4c(c3)OCCO4)C(=O)C21 (stereo not shown) | 4.43% |
| Cc1ccc(CNC(=O)CCC(=O)n2ncc3cc(C)ccc32)cc1 | 2.19% |
| O=C(Nc1ccccc1Oc1ccccc1)C1=COCCO1 | -30.1% |

| SMILES | hERG current change (%, negative = inhibition) at 10uM |
| --- | --- |
| CCOC(=O)c1cnn2c(C(F)(F)F)cc(-c3cn(C)nc3C)nc12 | -6.43% |
| COc1ccc(/C=C/C(=O)Oc2ccc(/C=N/NC(=O)c3ccccc3)cc2)cc1OC | -0.151% |
| CCCN1C2CCCC1CC(NC(=O)c1cccc(OC)c1)C2 (stereo not shown) | -16.4% |
| S=C(NCc1ccccn1)Nc1cccc(Cl)c1 | 2.65% |
| O=C(NCc1ccccc1)C1CCCN(C(=O)Nc2ccccc2)C1 (stereo not shown) | 12.9% |
| CC(=O)Nc1ccc(NC(=S)Nc2ccccc2)cc1 | -19.5% |
| Cc1ccc(C(=O)NC(=S)NCc2ccco2)cc1 | 13.7% |
| CCOC(=O)c1ccc(NC(=O)c2cc(S(=O)(=O)N3CCOCC3)cn2C)cc1 | 4.76% |
| O=C(CCNS(=O)(=O)c1c(Cl)cccc1Cl)N1CCCC1 | 4.43% |
| CC(=O)Nc1cccc(NC=C(C#N)C#N)c1 | 24.3% |
| Cc1nccn1-c1cc(C(C)(C)C)nc2c(-c3ccccc3)cnn12 | -1.51% |
| CCN(CC)S(=O)(=O)c1ccc(-c2nnc(SCC(=O)c3ccc(OC)cc3)o2)cc1 | 4.87% |
| O=C(N/N=C/c1ccccc1F)c1csc2c1CCCC2 | -2.82% |
| COc1ccc(S(=O)(=O)N2CCCCCC2)cc1C(=O)N(C)Cc1c(F)cccc1Cl | -49.8% |
| COc1ccc(N=Nc2ccc3ccccc3c2)c(O)c1 | 2.12% |
| CC(=O)c1ccc(-c2nnc(CCC(=O)N3CCCC(C(=O)CC(C)C)C3)o2)s1 (stereo not shown) | -8.98% |
| O=S(=O)(NCc1ccco1)c1cccc2cccnc12 | -22.3% |
| CCOC(=O)c1c(C)[nH]c(C(=O)COC(=O)c2cnc(C)cn2)c1C | 2.47% |
| O=C(O)CC(NC(=O)COc1ccccc1)c1cccc([N+](=O)[O-])c1 (stereo not shown) | 18.8% |
| O=C(N/N=C\c1cccc([N+](=O)[O-])c1O)C1COc2ccccc2O1 (stereo not shown) | 1.08% |
| Cc1nn(Cc2ccccc2)c(Cl)c1C(=O)OCc1nnc(-c2ccccc2)o1 | -9.19% |
| CC1CCCC(C)N1c1nnc(NC(=O)Cn2c(=O)oc3ccccc32)s1 (stereo not shown) | -4.03% |

| SMILES | hERG current change (%, negative = inhibition) at 10uM |
| --- | --- |
| COc1cccc(N2C(=O)CC(N3CCN(c4ccc([N+](=O)[O-])cc4)CC3)C2=O)c1 (stereo not shown) | -52.1% |
| O=C(N/N=C/c1ccoc1)c1cc(O)cc(O)c1 | 13.4% |
| CCN(CCCNC(=O)C1CCC(=O)N1Cc1ccc(C)cc1)c1cccc(C)c1 (stereo not shown) | -24.9% |
| O=C(N=C1N=C2C=CC(Br)=CN2Cc2ccccc21)c1ccc([N+](=O)[O-])cc1[N+](=O)[O-] | 10.5% |
| Cc1ccc(N2C(=O)NC(=O)/C(=C\c3ccoc3)C2=O)cc1 | 22% |
| CC1(C)CC(=O)C=C(Nc2ccccc2C#N)C1.Cl | 14% |
| O=C(OCCN1C(=O)c2ccccc2C1=O)c1ccc(S(=O)(=O)N2CCCCCC2)cc1 | 1.84% |
| COc1ccc(-c2nn(-c3ccccc3)cc2C(=O)O)cc1N | 5.05% |
| CCOC(=O)N/N=C/c1ccc(F)cc1 | 1.6% |
| Cn1c(CCN2CCOCC2)nc2cc(NC(=O)COc3ccccc3)ccc21 | -15.1% |
| Cc1ccccc1NC(=S)NCc1ccc(F)cc1 | 12.3% |
| CCCn1c(=N)c(C#N)cc2c(=O)n3ccccc3nc21 | -9.89% |
| COc1cc(C)c(NC(=S)Nc2cccc(Cl)c2C)cc1OC | 11.1% |
| CCS(=O)(=O)Nc1cccc(C(=O)CC2(O)C(=O)Nc3ccccc32)c1 (stereo not shown) | 11.5% |
| Cc1ccc(C)n1-c1ccc(C(=O)Nc2ccccc2)cc1 | -16.2% |
| CN(C)C(=O)Oc1ccc(OCc2cccc[n+]2C)cc1.Cc1ccc(S(=O)(=O)[O-])cc1 | -5.87% |
| COc1ccc(/C=N/N=C2/C(=O)Nc3ccccc32)cc1O | 15.7% |
| CO/N=C/c1ccc(Sc2ccccc2)c([N+](=O)[O-])c1 | 14% |
| Cc1onc(-c2ccccc2)c1C(=O)Nc1ccc(S(=O)(=O)N2CCCCC2)cc1 | 15.6% |
| COc1ccc(N2CCN(C(=O)Nc3ccccc3Cl)CC2)cc1 | 4.49% |
| N#CCCN1CCN(S(=O)(=O)c2ccc(S(=O)(=O)N3CCCC3)cc2)CC1 | 4.66% |
| O=C(Nc1ccc(F)cc1)c1oc2ccccc2c1NC(=O)C1CCCC1 | -4.15% |

| SMILES | hERG current change (%, negative = inhibition) at 10uM |
| --- | --- |
| CCOC(=O)C1(CCSC)NC(c2ccco2)C2C(=O)N(CC)C(=O)C21 (stereo not shown) | 9.77% |
| C/C(=N\Nc1nc(N2CCOCC2)nc(N2CCOCC2)n1)c1ccc([N+](=O)[O-])cc1 | 7.16% |
| Cc1n[nH]c(=O)c2c(NC(=O)CSc3nc4ccccc4c(=O)n3-c3ccc(OC(F)F)cc3)oc(C)c12 | -59.2% |
| CCOC(=O)c1cnc2cc(F)c(F)cc2c1N1CCN(C)CC1 | -16.4% |
| O=C(NCc1ccncc1)Nc1ccc(Cl)cc1Cl | 0.195% |
| CNc1oc(-c2ccccc2)nc1C#N | 11.8% |
| Cc1cccc(-n2ncc3c(NCCc4ccc(S(N)(=O)=O)cc4)ncnc32)c1 | -20.9% |
| Cc1ccc(S(=O)(=O)Oc2ccccc2/C=N/Nc2ccc(C(=O)O)cc2)cc1 | 7.71% |
| CC1CCN(CC(=O)NC2CCCCC2)CC1.Cl | 22.1% |
| CCOCCCN1CC(C(=O)NCCc2ccccc2)CC1=O (stereo not shown) | -4.9% |
| CCOC(=O)Cc1csc(NC(=O)Cc2ccc([N+](=O)[O-])cc2)n1 | -64.9% |
| CCN=C1SC(CC(=O)NC(C)C)C(=O)N1CC (stereo not shown) | -23.9% |
| Cc1ccccc1N1C(=O)C2C3C=CC(CC3)C2C1=O (stereo not shown) | 16.4% |
| Cc1ccc(C)n1NC(=O)c1cccc(Cl)c1 | 0.42% |
| CCC[N+]12CCC(CC1)C(C(O)(c1ccccc1)c1ccccc1)C2.[Br-] (stereo not shown) | -0.95% |
| CN(c1nc2c(c(=O)n(C)c(=O)n2C)n1CC(=O)c1ccccc1)C1CCCCC1 | -23.9% |
| CCOC(=O)c1ccc(S(=O)(=O)NNC(=O)COc2ccccc2C)cc1 | 27.5% |
| COC(=O)c1ccc(COC(=O)c2ccc(N(C)C)cc2)cc1 | -6.19% |
| COc1cc(NC(=O)C/C(C)=N/NC(=O)c2cccs2)c(OC)cc1Cl | -14.4% |
| O=C(Nc1ccc(Br)cn1)c1ccc(Cl)s1 | 16.8% |
| O=C1CCCC2=C1C(Cc1ccccc1)C1=C(CCCC1=O)O2 | -3.32% |
| O=C(Cn1cnc2ccccc2c1=O)Nc1nnc(C2CC2)s1 | 11.9% |
